Laboratory results published in the supplement of paper PMC4967469.
IC50 is the fitted dose that halves viability relative to control wells, and lower means more sensitive; a fit beyond the top or the lowest dose is shown as a bound at that dose. For AUC the same curve is integrated over the 256-fold range of doses and scaled to a fraction; it is 1 without any effect and falls as sensitivity rises. For part of these data: Any top dose called inferred is not printed in the source and was worked back from the curve model.

Legend:
Assay in all cases: Viability of human cancer cell lines after 72 h of drug (GDSC screen)
PIK-93 = compound: CC(=O)Nc1nc(C)c(-c2ccc(Cl)c(S(=O)(=O)NCCO)c2)s1 [PIK-93]; details: top dose 20 µM
Protocol: (§1)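 Human cancer cell lines in 384-well plates, medium with 10% serum, drug for 72 h over a 256-fold dose range (nine 2-fold or five 4-fold steps up to the top dose). Adherent lines were fixed and stained with the nucleic acid dye Syto60, suspension lines read with resazurin; signal relative to control wells, capped at 0 and 100%. One two-parameter sigmoid per drug and line, fitted in a mixed model over all curves with the slope shared within a line.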

ABT-263 = compound: CC1(C)CCC(c2ccc(Cl)cc2)=C(CN2CCN(c3ccc(C(=O)NS(=O)(=O)c4ccc(N[C@H](CCN5CCOCC5)CSc5ccccc5)c(S(=O)(=O)C(F)(F)F)c4)cc3)CC2)C1 [ABT-263]; details: top dose 2 µM; top dose inferred
Protocol: as §1

piperlongumine = compound: COc1cc(/C=C/C(=O)N2CCC=CC2=O)cc(OC)c1OC [piperlongumine]; details: top dose 10 µM
Protocol: as §1

GW843682X = compound: COc1cc2ncn(-c3cc(OCc4ccccc4C(F)(F)F)c(C(N)=O)s3)c2cc1OC [GW843682X]; details: top dose 0.256 µM
Protocol: as §1

GW 441756 = compound: Cn1cc(/C=C2\C(=O)Nc3cccnc32)c2ccccc21 [GW 441756]; details: top dose 2 µM; top dose inferred
Protocol: as §1

Salubrinal = compound: O=C(/C=C/c1ccccc1)NC(NC(=S)Nc1cccc2cccnc12)C(Cl)(Cl)Cl [Salubrinal]; details: top dose 16 µM; top dose inferred
Protocol: as §1

Cell Line | AUC (PIK-93) | IC50 (PIK-93) [nM] | AUC (ABT-263) | IC50 (ABT-263) [nM] | AUC (piperlongumine) | IC50 (piperlongumine) [nM] | AUC (GW843682X) | IC50 (GW843682X) [nM] | AUC (GW 441756) | IC50 (GW 441756) [nM] | AUC (Salubrinal) | IC50 (Salubrinal) [nM]
TGBC1TKB (biliary tract, adherent) | 0.954 | > 20000 | 0.839 | 1350 | 0.823 | 5830 | 0.63 | 36.4 | 0.989 | > 2000 | 0.95 | > 16000
TGW (neuroblastoma, adherent) | 0.844 | 11400 | 0.407 | 72.4 | 0.83 | 5090 | 0.492 | 15.3 | 0.98 | > 2000 | 0.95 | > 16000
TK10 (kidney, adherent) | 0.879 | > 20000 | 0.948 | > 2000 | 0.741 | 3590 | 0.717 | 75.7 | 0.962 | > 2000 | 0.943 | > 16000
TUR (B-cell lymphoma, suspension) | 0.513 | 1350 | 0.982 | > 2000 | 0.667 | 1750 | 0.984 | > 256 | 0.988 | > 2000 | 0.987 | > 16000
U-87-MG (glioma, adherent) | 0.784 | 10100 | 0.984 | > 2000 | 0.805 | 6150 | 0.981 | > 256 | 0.984 | > 2000 | 0.965 | > 16000
U-698-M (B-cell leukaemia, suspension) | 0.635 | 2940 | 0.987 | > 2000 | 0.739 | 3010 | 0.969 | > 256 | 0.986 | > 2000 | 0.955 | > 16000
UACC-257 (melanoma, adherent) | 0.817 | 14800 | 0.969 | > 2000 | 0.731 | 3400 | 0.777 | 129 | 0.951 | > 2000 | 0.892 | > 16000
VA-ES-BJ (soft tissue, adherent) | 0.885 | > 20000 | 0.933 | > 2000 | 0.742 | 3230 | 0.609 | 32.5 | 0.945 | > 2000 | 0.951 | > 16000
VCaP (prostate, adherent) | 0.711 | 5050 | 0.986 | > 2000 | 0.786 | 4500 | 0.707 | 62.8 | 0.987 | > 2000 | 0.901 | > 16000
WIL2-NS (lymphoid neoplasm, suspension) | 0.689 | 3760 | 0.99 | > 2000 | 0.82 | 4410 | 0.641 | 36.2 | 0.992 | > 2000 | 0.82 | 7050
WSU-DLCL2 (B-cell lymphoma, suspension) | 0.905 | 19000 | 0.808 | 828 | 0.766 | 3110 | 0.887 | 202 | 0.993 | > 2000 | 0.993 | > 16000
WSU-NHL (lymphoid neoplasm, suspension) | 0.641 | 2900 | 0.87 | 1490 | 0.788 | 3820 | 0.99 | > 256 | 0.977 | > 2000 | 0.989 | > 16000
YT (lymphoid neoplasm, suspension) | 0.787 | 7310 | 0.464 | 102 | 0.834 | 5160 | 0.992 | > 256 | 0.898 | 1830 | 0.991 | > 16000
no-11 (glioma, adherent) | 0.904 | > 20000 | 0.883 | > 2000 | 0.722 | 3180 | 0.796 | 156 | 0.966 | > 2000 | 0.929 | > 16000
